According to paper PMC4749545, “Kindlin-2 cooperates with talin to activate integrins and induces cell spreading by directly binding paxillin” (eLife, 2016):
Results are given in words; binding and its absence hold for the method and conditions named. For some assays here: Binding seen in cells or lysates may run through a third protein. Some binding calls cover weakened binding; strength is not graded here. For some assays here: Tags and fused reporters may be left off the sequences shown.

Chains of the proteins cited; added tags and fusions are not shown. Residues count along the entry.
UniProt Q8VI36, residues 473-533: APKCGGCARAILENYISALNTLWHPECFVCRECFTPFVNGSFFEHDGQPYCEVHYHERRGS
UniProt Q13418: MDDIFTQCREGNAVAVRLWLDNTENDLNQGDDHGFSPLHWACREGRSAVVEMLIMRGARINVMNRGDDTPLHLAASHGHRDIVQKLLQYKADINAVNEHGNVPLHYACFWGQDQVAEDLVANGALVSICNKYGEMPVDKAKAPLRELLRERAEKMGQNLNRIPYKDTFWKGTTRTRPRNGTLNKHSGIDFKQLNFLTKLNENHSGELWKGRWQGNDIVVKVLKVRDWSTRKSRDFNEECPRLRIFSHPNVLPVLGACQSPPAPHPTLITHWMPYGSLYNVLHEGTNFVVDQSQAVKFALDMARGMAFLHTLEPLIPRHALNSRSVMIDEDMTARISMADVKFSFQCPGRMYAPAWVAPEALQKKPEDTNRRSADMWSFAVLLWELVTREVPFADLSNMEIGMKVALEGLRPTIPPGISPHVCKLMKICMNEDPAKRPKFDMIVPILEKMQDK

T1: GFP-tagged kindlin-2 lacking the PH domain (in HEK293T) (mouse) (UniProt Q8CIB5)
T1 sequence: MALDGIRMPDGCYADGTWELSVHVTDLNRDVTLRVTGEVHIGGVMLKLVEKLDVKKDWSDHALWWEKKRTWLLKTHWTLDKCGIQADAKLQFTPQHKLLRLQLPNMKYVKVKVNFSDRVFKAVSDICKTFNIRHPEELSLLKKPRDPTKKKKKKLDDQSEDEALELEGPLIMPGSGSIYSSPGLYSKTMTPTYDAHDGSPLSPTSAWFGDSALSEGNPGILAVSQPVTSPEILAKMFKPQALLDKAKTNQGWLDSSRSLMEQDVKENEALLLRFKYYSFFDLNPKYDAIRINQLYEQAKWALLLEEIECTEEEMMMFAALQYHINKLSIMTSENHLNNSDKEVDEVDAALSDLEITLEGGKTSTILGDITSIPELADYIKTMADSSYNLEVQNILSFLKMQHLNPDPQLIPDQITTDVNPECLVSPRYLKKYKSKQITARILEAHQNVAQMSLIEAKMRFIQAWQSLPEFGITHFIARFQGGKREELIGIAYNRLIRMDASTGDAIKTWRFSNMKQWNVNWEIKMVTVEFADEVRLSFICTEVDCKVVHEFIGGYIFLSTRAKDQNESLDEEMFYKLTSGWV

T2: green fluorescent protein-tagged kindlin-2 (in HEK293T) (mouse) (UniProt Q8CIB5)
T2 sequence: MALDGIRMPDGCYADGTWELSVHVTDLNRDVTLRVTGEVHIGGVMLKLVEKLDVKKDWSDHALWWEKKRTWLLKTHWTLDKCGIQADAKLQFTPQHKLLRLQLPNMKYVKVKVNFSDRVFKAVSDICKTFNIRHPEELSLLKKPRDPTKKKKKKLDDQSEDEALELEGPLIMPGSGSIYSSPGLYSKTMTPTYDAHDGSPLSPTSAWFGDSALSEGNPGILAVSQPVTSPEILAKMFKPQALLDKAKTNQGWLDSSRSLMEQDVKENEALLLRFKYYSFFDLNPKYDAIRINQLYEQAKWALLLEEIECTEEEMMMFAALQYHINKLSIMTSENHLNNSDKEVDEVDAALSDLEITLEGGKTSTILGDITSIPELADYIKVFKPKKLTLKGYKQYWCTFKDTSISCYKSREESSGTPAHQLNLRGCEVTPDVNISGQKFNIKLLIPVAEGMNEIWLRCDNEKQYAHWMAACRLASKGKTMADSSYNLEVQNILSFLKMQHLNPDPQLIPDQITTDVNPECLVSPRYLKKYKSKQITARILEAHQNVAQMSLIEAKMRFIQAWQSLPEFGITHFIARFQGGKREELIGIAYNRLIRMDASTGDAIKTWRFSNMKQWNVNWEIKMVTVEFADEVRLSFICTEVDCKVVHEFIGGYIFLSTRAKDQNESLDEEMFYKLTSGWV

T3: GFP-tagged kindlin-2 C-terminal truncation construct (mouse) (UniProt Q8CIB5)
T3 sequence: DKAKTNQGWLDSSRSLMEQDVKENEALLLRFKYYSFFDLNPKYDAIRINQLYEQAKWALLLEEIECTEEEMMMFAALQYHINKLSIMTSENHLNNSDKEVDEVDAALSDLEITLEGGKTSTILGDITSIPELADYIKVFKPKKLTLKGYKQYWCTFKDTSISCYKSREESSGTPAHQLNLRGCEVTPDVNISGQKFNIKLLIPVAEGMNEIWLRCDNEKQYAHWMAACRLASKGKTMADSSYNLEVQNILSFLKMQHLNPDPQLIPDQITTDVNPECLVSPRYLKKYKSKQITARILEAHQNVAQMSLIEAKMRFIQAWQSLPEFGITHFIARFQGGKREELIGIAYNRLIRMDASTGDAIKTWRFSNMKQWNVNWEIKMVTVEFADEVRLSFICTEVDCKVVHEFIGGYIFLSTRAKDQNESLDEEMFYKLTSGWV

T4: GFP-tagged kindlin-2 N-terminal truncation construct (mouse) (UniProt Q8CIB5)
T4 sequence: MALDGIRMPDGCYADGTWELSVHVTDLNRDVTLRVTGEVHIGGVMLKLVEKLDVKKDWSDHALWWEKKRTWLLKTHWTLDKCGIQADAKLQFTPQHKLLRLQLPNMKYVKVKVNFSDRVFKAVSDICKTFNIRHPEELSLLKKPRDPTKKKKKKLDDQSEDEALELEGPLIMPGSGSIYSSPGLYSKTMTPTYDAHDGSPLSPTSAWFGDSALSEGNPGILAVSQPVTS


Tests used:
[1] = molecular target: T1, GFP-tagged kindlin-2 lacking the PH domain (in HEK293T) (mouse); assay: co-IP; GFP-IP with µ-MACS anti-GFP magnetic beads of lysates of HEK 293T cells overexpressing the GFP-tagged bait and the FLAG- or Cherry-tagged partner; western blot
[2] = molecular target: T2, green fluorescent protein-tagged kindlin-2 (in HEK293T) (mouse); assay: as above
[3] = molecular target: T3, GFP-tagged kindlin-2 C-terminal truncation construct (mouse); assay: as above
[4] = molecular target: T4, GFP-tagged kindlin-2 N-terminal truncation construct (mouse); assay: as above
[5] = molecular target: His10-SUMO3-paxillin-LIM3 domain (mouse) (UniProt Q8VI36); assay: pull-down; as the pull-down with ZnCl2, but the washes after kindlin-2 held 25 mM imidazole and 1 mM EDTA in place of 1 mM ZnCl2; both purified

| binding [1] | binding [2] | binding [3] | binding [4] | binding [5] | Molecule |
| --- | --- | --- | --- | --- | --- |
| binds | binds | binds | no binding | – | integrin-linked kinase (from UniProt Q13418 1-452) |
| – | – | – | – | no binding (condition: with 1 mM EDTA) | recombinant murine kindlin-2 (protein, UniProt Q8CIB5 1-680) MALDGIRMPDGCYADGTWELSVHVTDLNRDVTLRVTGEVHIGGVMLKLVEKLDVKKDWSDHALWWEKKRTWLLKTHWTLDKCGIQADAKLQFTPQHKLLRLQLPNMKYVKVKVNFSDRVFKAVSDICKTFNIRHPEELSLLKKPRDPTKKKKKKLDDQSEDEALELEGPLIMPGSGSIYSSPGLYSKTMTPTYDAHDGSPLSPTSAWFGDSALSEGNPGILAVSQPVTSPEILAKMFKPQALLDKAKTNQGWLDSSRSLMEQDVKENEALLLRFKYYSFFDLNPKYDAIRINQLYEQAKWALLLEEIECTEEEMMMFAALQYHINKLSIMTSENHLNNSDKEVDEVDAALSDLEITLEGGKTSTILGDITSIPELADYIKVFKPKKLTLKGYKQYWCTFKDTSISCYKSREESSGTPAHQLNLRGCEVTPDVNISGQKFNIKLLIPVAEGMNEIWLRCDNEKQYAHWMAACRLASKGKTMADSSYNLEVQNILSFLKMQHLNPDPQLIPDQITTDVNPECLVSPRYLKKYKSKQITARILEAHQNVAQMSLIEAKMRFIQAWQSLPEFGITHFIARFQGGKREELIGIAYNRLIRMDASTGDAIKTWRFSNMKQWNVNWEIKMVTVEFADEVRLSFICTEVDCKVVHEFIGGYIFLSTRAKDQNESLDEEMFYKLTSGWV |
